Experimental data as given in US6660835B1, “Lead substances and their use as therapeutics” (priority 1998, dated 2003).

Tested on: agr system of S. aureus
Settings: S. aureus Newman; 0.05 to 1 μM; after 8 h of growth

SVc[CASYF]: S. epidermidis pheromone lacking the original aspartate residue at the N-terminus (SVXASYF; thiolactone cyclisation; VARIANT (3) C-terminal cyclyzed through thioester linkage to cystine residue 3; listed as Staphylococcus epidermidis)
suppression of delta-toxin production: suppress the synthesis of delta-toxin
